Structures can show the parent of a compound that is named as a salt. ± gives the standard error. Among all 1,300 compounds or so, about 130 (10%) showed an effect of 50% or more. This is a selection; strong and weak results do not stand in their true shares.

This experiment relates to Trichoderma virens ATCC 9645. The experiment is described as follows: growth yield (OD600) with compound + IPBC relative to untreated control; higher = less growth inhibition. The conditions noted are these: compound concentration: 100 uM, IPBC concentration: 200 ng/ml. An outline of the steps:
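Library compounds (100 μM final), with or without a co-applied biocide (200 ng ml^−1), were added to 100 μl aliquots of Trichoderma virens ATCC 9645 spores at 15,000 spores ml^−1 in potato dextrose broth. Cultures were grown at 30 °C in 96-well plates, and OD600 was measured at 40 h and 72 h. Each growth value is a mean of duplicate screens, expressed relative to the control with neither agent.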

`Clc1cccc(Cl)c1NC1=NCCN1` [Clonidine hydrochloride] + CCCCNC(=O)OCC#CI [3-iodo-2-propynyl butylcarbamate (IPBC)]: the growth yield by setting is: (40 h) 92.9 ± 5.6%; (72 h) 99.2 ± 4.4%.

For the compound `CC(=O)O[C@]1(C(C)=O)CC[C@H]2[C@@H]3C=C(Cl)C4=CC(=O)CC[C@]4(C)[C@H]3CC[C@@]21C` [Chlormadinone acetate] + CCCCNC(=O)OCC#CI [3-iodo-2-propynyl butylcarbamate (IPBC)], the growth yield (40 h) worked out at 115 ± 9.5% and the growth yield (72 h) is 118 ± 6.7%.

In the case of `CCCNC(=O)NS(=O)(=O)c1ccc(Cl)cc1` [Chlorpropamide] + CCCCNC(=O)OCC#CI [3-iodo-2-propynyl butylcarbamate (IPBC)], the growth yield (40 h) is 93.7 ± 4.1% and the growth yield (72 h) amounted to 102 ± 2.2%.

In the case of `CN(C)CCOC(c1ccccc1)c1ccccc1.Cn1c(=O)c2[nH]c(Cl)nc2n(C)c1=O` [Dimenhydrinate] + CCCCNC(=O)OCC#CI [3-iodo-2-propynyl butylcarbamate (IPBC)], the growth yield (40 h) amounted to 79.6 ± 2.7% and the growth yield (72 h) came out at 92.5 ± 2.3%.

`Clc1ccc2c(c1)CCc1cccnc1C2=C1CCNCC1` [Desloratadine] + CCCCNC(=O)OCC#CI [3-iodo-2-propynyl butylcarbamate (IPBC)]: the growth yield was 56.2 ± 0.64% (40 h) and 89.7 ± 1.4% (72 h).

`O=C1NCC2(CCN(CCc3ccccc3)CC2)O1` [Fenspiride hydrochloride] + CCCCNC(=O)OCC#CI [3-iodo-2-propynyl butylcarbamate (IPBC)]: the growth yield turned out to be 93.2 ± 1.1% (40 h) and 100 ± 2.4% (72 h).

Consider `Cc1[nH]cnc1CN1CCc2c(c3ccccc3n2C)C1=O` [Alosetron hydrochloride] + CCCCNC(=O)OCC#CI [3-iodo-2-propynyl butylcarbamate (IPBC)], for which the growth yield stood at 85.5 ± 1.3% (40 h) and 87.89 ± 0.21% (72 h).

Consider `CCCOc1ccc2[nH]c(NC(=O)OC)nc2c1` [Oxibendazol] + CCCCNC(=O)OCC#CI [3-iodo-2-propynyl butylcarbamate (IPBC)], for which the growth yield (40 h) was found to be 44.6 ± 2.1%.

As for `O=C(c1ccc(F)cc1)C1CCN(CCn2c(=O)[nH]c3ccccc3c2=O)CC1` [Ketanserin tartrate hydrate] + CCCCNC(=O)OCC#CI [3-iodo-2-propynyl butylcarbamate (IPBC)], the growth yield (40 h) was found to be 98.5 ± 8.3% and the growth yield (72 h) was 101 ± 3.2%.

Consider `CCN(CC)C(=O)c1ccc(O)c(OC)c1` [Ethamivan] + CCCCNC(=O)OCC#CI [3-iodo-2-propynyl butylcarbamate (IPBC)], for which the growth yield reads like this: (40 h) 87.8 ± 2.4%; (72 h) 92.6 ± 3.2%.

`CCC(C)(C)C(=O)O[C@H]1C[C@@H](C)C=C2C=C[C@H](C)[C@H](CC[C@@H]3C[C@@H](O)CC(=O)O3)[C@H]21` [Simvastatin] + CCCCNC(=O)OCC#CI [3-iodo-2-propynyl butylcarbamate (IPBC)]: the growth yield stood at 104 ± 5.4% (40 h) and 99.8 ± 3.6% (72 h).

For `CCCc1nn(C)c2c(=O)[nH]c(-c3cc(S(=O)(=O)N4CCN(C)CC4)ccc3OCC)nc12` [Sildenafil] + CCCCNC(=O)OCC#CI [3-iodo-2-propynyl butylcarbamate (IPBC)], the growth yield is, setting by setting: (40 h) 89.1 ± 3.6%; (72 h) 92.3 ± 2.9%.

On to `CCCNC(C)(C)COC(=O)c1ccccc1` [Meprylcaine hydrochloride] + CCCCNC(=O)OCC#CI [3-iodo-2-propynyl butylcarbamate (IPBC)], for which the growth yield came to 87.7 ± 7.6% (40 h) and 91.8 ± 5.1% (72 h).

For `c1ccc2c(c1)Nc1ccccc1S2` [Phenothiazine] + CCCCNC(=O)OCC#CI [3-iodo-2-propynyl butylcarbamate (IPBC)], the growth yield (40 h) was found to be 34.8 ± 2.7%.

Take `C[N+](C)(CCOc1ccccc1)Cc1ccccc1.O=C([O-])c1cc2ccccc2cc1O` [Bephenium hydroxynaphthoate] + CCCCNC(=O)OCC#CI [3-iodo-2-propynyl butylcarbamate (IPBC)]: the growth yield (40 h) turned out to be 63.5% and the growth yield (72 h) was determined as 85.3 ± 2.4%.

Regarding `NC1CCN(c2c(F)cc3c(=O)c(C(=O)O)cn(C4CC4)c3c2Cl)C1` (configuration not stated) [Clinafloxacin] + CCCCNC(=O)OCC#CI [3-iodo-2-propynyl butylcarbamate (IPBC)], the growth yield (40 h) was determined as 87.8 ± 6.8% and the growth yield (72 h) was found to be 90.4 ± 3.1%.

In the case of `CCc1nn(CCCN2CCN(c3cccc(Cl)c3)CC2)c(=O)n1CCOc1ccccc1` [Nefazodone hydrochloride] + CCCCNC(=O)OCC#CI [3-iodo-2-propynyl butylcarbamate (IPBC)], the growth yield runs as follows: (40 h) 58.6 ± 1.1%; (72 h) 97.22 ± 0.73%.

As to `OCCN1CCN(CC/C=C2/c3ccccc3Sc3ccc(Cl)cc32)CC1` [Zuclopenthixol dihydrochloride] + CCCCNC(=O)OCC#CI [3-iodo-2-propynyl butylcarbamate (IPBC)], the growth yield runs as follows: (40 h) 4.92 ± 0.16%; (72 h) 3.57 ± 0.21%.

As to `Nc1ccc(/N=N/c2ccccc2)c(N)n1` [Phenazopyridine hydrochloride] + CCCCNC(=O)OCC#CI [3-iodo-2-propynyl butylcarbamate (IPBC)], the growth yield amounted to 7.15 ± 0.48% (40 h) and 13.5 ± 1.8% (72 h).

Turning to `CN(C)CCOC(=O)C(c1ccccc1)C1(O)CCCC1` (configuration not stated) [Cyclopentolate hydrochloride] + CCCCNC(=O)OCC#CI [3-iodo-2-propynyl butylcarbamate (IPBC)], the growth yield (40 h) worked out at 83.7 ± 3% and the growth yield (72 h) is 87.7 ± 2.1%.

On to `O=C(O)c1ccccc1Nc1cccc(C(F)(F)F)c1` [Flufenamic acid] + CCCCNC(=O)OCC#CI [3-iodo-2-propynyl butylcarbamate (IPBC)], for which, under “40 h”, the growth yield was 29.1 ± 2.1%.

As for `CC[N+](C)(CC)CCC[n+]1c(-c2ccccc2)c2cc(N)ccc2c2ccc(N)cc21` [Propidium iodide] + CCCCNC(=O)OCC#CI [3-iodo-2-propynyl butylcarbamate (IPBC)], the growth yield runs as follows: (40 h) 8.1 ± 5.6%; (72 h) 12.7 ± 0.32%.

For the compound `Clc1ccc(C(c2ccccc2Cl)C(Cl)Cl)cc1` (configuration not stated) [Mitotane] + CCCCNC(=O)OCC#CI [3-iodo-2-propynyl butylcarbamate (IPBC)], the growth yield is 71.6 ± 1.1% (40 h) and 85.5 ± 0.94% (72 h).

For the compound `O=C1O[C@H]([C@@H](O)CO)C(O)=C1O` [Ascorbic acid] + CCCCNC(=O)OCC#CI [3-iodo-2-propynyl butylcarbamate (IPBC)], the growth yield by setting is: (40 h) 92.1 ± 0.95%; (72 h) 96.28 ± 0.63%.

In the case of `Cc1cccc(C)c1OCC(=O)N[C@@H](Cc1ccccc1)[C@@H](O)C[C@H](Cc1ccccc1)NC(=O)[C@H](C(C)C)N1CCCNC1=O` [Lopinavir] + CCCCNC(=O)OCC#CI [3-iodo-2-propynyl butylcarbamate (IPBC)], the growth yield amounted to 108 ± 5.4% (40 h) and 111 ± 5.1% (72 h).
